Experimental data from publication PMC7405385.
No constants are given. Whether binding was seen depends on the method and setting. Binding seen in cells or lysates may run through a third protein. Some results given as binding are weak or reduced against the parent protein; the word gives no strength. For some of these results: Sequences can lack the tags named with a protein.

Amino acid sequences for entries named in this document (tags omitted). A change or cut given only in a name is not applied to a line headed by its entry. Residues count along the entry.
UniProt P52630: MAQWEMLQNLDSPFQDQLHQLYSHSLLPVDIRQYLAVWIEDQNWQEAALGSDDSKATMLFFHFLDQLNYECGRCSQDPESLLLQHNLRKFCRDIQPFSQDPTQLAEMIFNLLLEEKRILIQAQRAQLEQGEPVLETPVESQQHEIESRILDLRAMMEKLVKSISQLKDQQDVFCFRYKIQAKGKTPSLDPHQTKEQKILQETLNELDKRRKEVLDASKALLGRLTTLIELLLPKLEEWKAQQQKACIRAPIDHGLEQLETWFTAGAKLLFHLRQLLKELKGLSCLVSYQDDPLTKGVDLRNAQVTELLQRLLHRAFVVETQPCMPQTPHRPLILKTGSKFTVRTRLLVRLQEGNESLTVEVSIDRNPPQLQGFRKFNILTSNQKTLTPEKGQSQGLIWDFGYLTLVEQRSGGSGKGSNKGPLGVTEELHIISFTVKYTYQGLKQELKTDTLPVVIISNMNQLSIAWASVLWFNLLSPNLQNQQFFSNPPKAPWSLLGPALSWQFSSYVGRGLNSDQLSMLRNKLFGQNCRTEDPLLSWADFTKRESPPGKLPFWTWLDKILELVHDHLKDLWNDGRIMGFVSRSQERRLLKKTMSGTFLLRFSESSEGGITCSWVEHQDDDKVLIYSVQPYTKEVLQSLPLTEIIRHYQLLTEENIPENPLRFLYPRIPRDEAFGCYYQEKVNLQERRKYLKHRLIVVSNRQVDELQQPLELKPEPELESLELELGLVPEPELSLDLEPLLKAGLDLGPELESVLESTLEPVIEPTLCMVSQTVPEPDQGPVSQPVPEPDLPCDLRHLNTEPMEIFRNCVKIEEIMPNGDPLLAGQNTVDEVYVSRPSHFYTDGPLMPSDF
UniProt Q00978: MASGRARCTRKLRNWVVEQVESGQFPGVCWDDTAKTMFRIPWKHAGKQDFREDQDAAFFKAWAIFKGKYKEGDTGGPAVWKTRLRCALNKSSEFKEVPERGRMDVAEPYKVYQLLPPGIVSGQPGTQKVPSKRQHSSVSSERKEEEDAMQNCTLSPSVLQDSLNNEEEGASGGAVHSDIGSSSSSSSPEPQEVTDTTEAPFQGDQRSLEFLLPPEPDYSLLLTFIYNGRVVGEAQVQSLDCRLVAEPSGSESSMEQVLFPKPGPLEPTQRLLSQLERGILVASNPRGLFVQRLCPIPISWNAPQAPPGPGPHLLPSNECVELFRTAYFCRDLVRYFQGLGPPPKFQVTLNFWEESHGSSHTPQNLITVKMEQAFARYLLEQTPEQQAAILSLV
UniProt P17181, residues 28-557: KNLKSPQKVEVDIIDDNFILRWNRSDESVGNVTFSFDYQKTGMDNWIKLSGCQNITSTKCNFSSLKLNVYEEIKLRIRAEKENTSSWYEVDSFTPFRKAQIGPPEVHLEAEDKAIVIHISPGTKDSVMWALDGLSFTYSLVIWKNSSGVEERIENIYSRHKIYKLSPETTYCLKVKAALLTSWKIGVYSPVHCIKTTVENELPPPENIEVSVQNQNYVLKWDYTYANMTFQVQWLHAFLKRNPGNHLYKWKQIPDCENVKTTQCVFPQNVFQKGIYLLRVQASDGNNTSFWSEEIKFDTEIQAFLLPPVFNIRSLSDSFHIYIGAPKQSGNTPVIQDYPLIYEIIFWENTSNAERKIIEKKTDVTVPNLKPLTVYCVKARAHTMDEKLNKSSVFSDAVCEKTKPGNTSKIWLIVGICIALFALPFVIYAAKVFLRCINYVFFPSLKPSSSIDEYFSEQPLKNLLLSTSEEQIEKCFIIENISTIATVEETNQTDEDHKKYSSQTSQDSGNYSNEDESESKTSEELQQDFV

Key:
[1] = target: GFP-tagged STAT2 wild type expressed in U6A cells (human) (UniProt P52630); experiment: pull-down; GFP pull-down from whole-cell lysates of U6A cells treated with IFN-β (100 IU/mL) for 0, 5 or 15 min, western blot
[2] = target: GFP-tagged STAT2 T404E expressed in U6A cells (human) (UniProt P52630); experiment: as above
[3] = target: GFP-tagged STAT2 T404A expressed in U6A cells (human) (UniProt P52630); experiment: as above
[4] = target: IRF9 in U6A cells (human (endogenous in U6A)) (UniProt Q00978); experiment: co-IP; immunoprecipitation of Flag-STAT2 or IRF9 from whole-cell lysates of U6A cells; IFN-β (100 IU/mL) for 4 h by the legend
[5] = target: T1, GST-fusion protein of the kinase domain of IKK-ε (UniProt Q14164); experiment: pull-down; GST-fusion proteins of IKK-ε truncations with STAT2 (Fig. S3c); STAT2 DBD with IKK-ε (Fig. S3d); called direct
T1 sequence: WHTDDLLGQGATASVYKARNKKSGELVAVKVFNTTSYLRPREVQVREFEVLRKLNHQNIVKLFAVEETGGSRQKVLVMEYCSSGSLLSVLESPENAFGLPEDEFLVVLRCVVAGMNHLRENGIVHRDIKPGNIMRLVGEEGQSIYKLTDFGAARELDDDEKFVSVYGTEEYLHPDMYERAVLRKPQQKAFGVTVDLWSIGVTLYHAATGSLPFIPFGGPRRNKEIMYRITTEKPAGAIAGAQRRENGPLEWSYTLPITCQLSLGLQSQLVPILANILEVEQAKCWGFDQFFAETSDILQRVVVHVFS

## phosphorylated IFNAR1 in IFN-β-treated U6A cells (from UniProt P17181 28-557) (receptor)
[1]
  binding: binds
[2]
  binding: binds
[3]
  binding: binds

## Flag-STAT2 T404E expressed in U6A cells (from UniProt P52630 1-851)
[4]
  binding: binds

## Flag-STAT2 T404A expressed in U6A cells (from UniProt P52630 1-851)
[4]
  binding: binds

## Flag-STAT2 F175A expressed in U6A cells (from UniProt P52630 1-851)
[4]
  binding: no binding

## STAT2 as used in the GST pull-down assays (Fig. S1b, c and Fig. S3c) (from UniProt P52630 1-851)
[5]
  binding: binds
